# Results published in patent US10934346B2, “Modified T cell comprising a polynucleotide encoding an inducible stimulating molecule comprising MyD88, CD40 and FKBP12” (priority 2014, dated 2021).
# Legend:
# [1] = system: iMC-modified T cells; experiment: Cytokine/chemokine production (ELISA, multiplex array) and CD25 expression of iMC-modified T cells with rimiducid; details: 10 nM rimiducid
# Method: FIGS. 1A-1H provide the results of assays showing that iMC functions provide inducible costimulation T cells. FIG. 1A) Schematic diagram of dimerization of the MyD88 and CD40 cytoplasmic signaling domains in T cells following rimiducid exposure. […] FIG. 1C) Analysis of IL-6 production following 10 nM treatment with rimiducid in T cells transduced with vectors containing only FKBPs, or inducible MyD88, inducible CD40 or iMC. FIG. 1D) Multiplex array measuring time-dependent phosphorylation JNK, RelA and p38 (MAPK) signaling molecules following transduced T cell exposure to 10 nM rimiducid. FIG. 1E) Western plot analyses of phosphorylated signaling proteins in T cells transduced with FKPBs or iMC following rimiducid treatment for 0, 15 and 60 minutes. Positive control indicates T cell treatment with PHA and ionomycin. FIG. 1F) T cells transduced with vectors containing only FKBPs, or inducible MyD88, inducible CD40 or iMC were activated with and without 10 nM rimiducid and/or 50 ng/ml soluble anti-CD3 and supernatants measured for IL-2 by ELISA and assessed for CD25 expression by flow cytometry (FIG. 1G and FIG. 1H). * indicates p-value <0.05.
# FIGS. 9A and 9B provide assay results of the induction of cytokines by rimiducid in iMC-transduced T cells. […] Supernatants were then collected and analyzed using a multiplex cytokine/chemokine array.
# Immunophenotyping. Gene-modified T cells were analyzed for iMC transgene expression 10-14 days post-transduction by using CD3-PerCP.Cy5 and CD19-PE (BioLegend). […] T cells were also analyzed for CD4, CD8 and CD25 (BioLegend) following activation with 10 nM rimiducid and Capan-1 tumor cells. All flow cytometry was performed using an LSRII flow cytometer (Becton Dickenson, East Rutherford, N.J.), and the data analyzed using FLOWJO (Tree star, Ashland, Oreg.) or KALUZA software (Beckman Coulter, Pasadena, Calif.).
# Cytokine and chemokine production. Production of IFN-γ, IL-2 and IL-6 by T cells modified with iMC or control vectors were analyzed by ELISA per the manufacturer's protocol (eBioscience, San Diego, Calif.). […]
# [2] = system: Capan-1-GFP tumor cells; experiment: Coculture of CAR/iMC T cells with Capan-1-GFP tumor cells; details: 10 nM rimiducid
# From the text: FIGS. 2A-2F provide the results of assays showing that T cells cotransduced with iMC and PSCA.ζ CAR show improved tumor killing and expansion in a rimiducid-dependent manner. FIG. 2A) A schematic representation of T cells genetically modified with a CAR and iMC. FIG. 2B) T cells were transduced with PSCA.ζ CAR and either FKBP or iMC retrovirus and measured for coexpression by flow cytometry using CD19-PE and anti-CAR-APC. FIG. 2C) Non-transduced and PSCA.ζ CAR T cells modified with either FKBP or iMC were cocultured with Capan-1-GFP tumor cells at a 1:1 T cell to tumor cell ratio with and without 10 nM rimiducid. Tumor cell and T cell frequency were assessed after 7 days by flow cytometry. Tumor cell frequency was assessed by flow cytometry by measuring CD3^−GFP^+ tumor cells by SSC/GFP gating. Enrichment of T cells coexpressing iMC and CAR were assessed in coculture assays by flow cytometry by measuring CD19-PE and anti-CAR-APC frequency, respectively. FIG. 2D) T cells were subsequently assessed for CD25 expression and measured for T cell proliferation (FIG. 2E) using flow cytometry and cell enumeration. FIG. 2F) T cells cotransduced with iMC or Ctrl vector, and PSCA.ζ CAR were cocultured with and without Capan-1 tumor cells, and with and without 10 nM rimiducid and the supernatants measured for IL-2 levels after 48 hours. * indicates p-value <0.05. ** indicates p-value <0.01. […]
# [3] = system: iMC and PSCA.ζ CAR T cells; experiment: Survival of iMC and PSCA.ζ CAR T cells cultured without IL-2; format: cell-based, human; details: no exogenous IL-2 or TCR activation
# Method: FIG. 11 provides assay results showing that iMC activation enhances CAR survival in the absence of IL-2. T cells transduced with iMC and PSCA.ζ CAR were cultured in media without IL-2 for 42 days. T cells received no treatment (media change only), αCD3 stimulation (50 ng/ml OKT3), 10 nM rimiducid (CID) or both CD3 and CID stimulation on a weekly basis. Cultures were phenotyped by flow cytometry for T cell survival (FSC/SSC) and iMC^+CAR^+ expression by flow cytometry.
compound,measurement,setting,value
"CC[C@H](C(=O)N1CCCC[C@H]1C(=O)O[C@H](CCc1ccc(OC)c(OC)c1)c1cccc(OCC(=O)NCCNC(=O)COc2cccc([C@@H](CCc3ccc(OC)c(OC)c3)OC(=O)[C@@H]3CCCCN3C(=O)[C@@H](CC)c3cc(OC)c(OC)c(OC)c3)c2)c1)c1cc(OC)c(OC)c(OC)c1 (relative stereo) [rimiducid, 2-Piperidinecarboxylic acid, 1-[(2S)-1-oxo-2-(3,4,5-trimethoxyphenyl)butyl]-, 1,2-ethanediylbis [imino(2-oxo-2,1-ethanediyl)oxy-3,1-phenylene[(1R)-3-(3,4-Dimethoxyphenyl)propylidene]] ester, [2S-[1(R*),2R*[S*[S*[1(R*),2R*]]]]]-(9Cl)]",cytokines and chemokines induced (multiplex array),"[1]; 48 hours, iMC T cells","GM-CSF, TNF-α, IL-5, IL-6, IL-8 and IL-13 secretion were induced"
same,cytokines not upregulated (multiplex array),"[1]; 48 hours, iMC T cells",production of IL-2 and other cytokines was not upregulated
same,IFN-γ production,[1]; transduced and non-transduced T cells,elicited IFN-γ production only in iMC-modified T cells
same,frequency of CAR+iMC+ T cells,[2],dramatic increase in the frequency of rimiducid-activated CAR^+iMC^+ T cells
same,survival of CAR T cells,[3],improved survival of CAR T cells in the absence of exogenous IL-2 or TCR activation
